Laboratory results taken from the supplement of paper PMC4466236.
Whole data set: some 33,000 sequences, median “E-score (dimensionless, -0.5 to 0.5)” near -0.058, cut for the highest 2% near 0.35. The list shows a part of the results.

tested on: MvaT; assay: PBM 8-mer E-score (mean of HK and ME arrays) (E-score (dimensionless, -0.5 to 0.5)); higher = stronger relative binding preference; most listed sequences are background and not binding sites
Method in brief: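 Full-length P. aeruginosa MvaT, with glutathione S-transferase fused to its N-terminus (cloned into pTH6838 by isothermal assembly), was tested by protein binding microarray using a previously described protocol. Two universal double-stranded 60-mer arrays (ME and HK) were used, each with a constant 25-mer primer region and a variable 35-mer region covering all 8-mers. The rank-based 8-mer E-score (-0.5 to 0.5) is the mean of the two arrays, parsed with a custom Python script.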

Sequence | PBM 8-mer E-score
ACTTGTGA | 0.0507
AAGGTATG | 0.0179
ATTCGAGA | -0.0857
AGAAAGCA | -0.0897
TGAAAACA | 0.226
AACACAAG | 0.162
GGTAGTAC | -0.022
GACATCAA | -0.0722
CTCCCGCA | -0.235
ACCCACCC | -0.0608
CACTGGGA | -0.1
TAGTTCCA | 0.114
AATATCTG | 0.207
ATTCTTCA | 0.133
AATGGTGC | -0.104
AGGGGGGA | -0.254
AGCTCCGC | -0.33
AACAAGAC | -0.0275
ACTAACGC | 0.0303
CGGTACAC | -0.0366
GACTGATA | 0.0896
AACGGCGA | -0.0359
GGGCATCA | -0.211
CTGATGTC | -0.112
ACTGAACC | 0.0517

Sequence | PBM 8-mer E-score
TCGGAACA | -0.0242
GGGGCTGA | -0.275
ACTCCTAG | -0.344
ATGACACC | -0.11
AGAGTCGC | -0.266
GAGCGTCC | -0.15
AATGGACG | -0.06
CGTAGCCC | -0.198
GAAACCGC | -0.204
AATGTTGG | 0.197
ATTTAACG | 0.255
AAGGGCCT | -0.25
ATCGATTA | 0.149
GCACTACA | -0.0628
ACGTATCT | 0.0451
CCAATGCC | -0.157
AGAAGCTG | -0.227
ACCTTAGA | -0.154
AGTAGAAC | 0.0275
ACAGATTA | 0.228
AGGATGCC | -0.261
CTAGAAGC | -0.207
CCAGTAGA | -0.136
ATCATAAC | 0.289
GGATCTTA | -0.0201

Sequence | PBM 8-mer E-score
AGCATTCG | -0.0873
ATTGTCCA | 0.146
AACAATTC | 0.27
AGGTTTAG | -0.0852
CAAAAAGC | -0.0857
CGCGCGGC | -0.167
ATCTTAAC | 0.244
TATCCCGA | 0.0257
CAGGTCTC | -0.242
GAATCCCA | -0.225
TCGTTCAA | 0.064
CTATTAAA | 0.283
CCTGGCAC | -0.123
AATTAGTG | 0.306
ATTGCTGC | -0.00394
CAACCCTC | -0.192
GGTTAACA | 0.217
CCCGGCTA | -0.0733
CGGAGTCA | -0.13
AGTATAAC | 0.36
CAGGGCCG | -0.235
ATGCTTAC | -0.0304
AACGGTAG | -0.0449
GCACTGGC | -0.204
GAAAAGCA | -0.00086

Sequence | PBM 8-mer E-score
CACCAGAC | -0.186
CTTCGAAG | 0.069
GATCGTGC | -0.0176
GCAAGCAA | -0.15
AATTGGAG | 0.0968
CCGCCGCC | -0.263
ACTCGTCC | -0.147
GAGCACAA | 0.0374
CATGCGAC | -0.198
CAAATTTA | 0.22
CATAACCG | -0.052
CCCCGGCC | -0.297
ATCTTGTG | 0.111
AAGGAAGT | -0.00637
AACAAAGC | 0.133
ATCCTCAG | -0.133
CGCCTCGA | -0.185
GCAGCATA | 0.136
ACGCAAAA | 0.167
CCCCTACA | -0.291
AGTTTCAT | 0.202
TACAGACA | 0.0794
GGTTTTAC | -0.00569
CCTTCCGA | -0.292
TGACGACA | -0.209

Sequence | PBM 8-mer E-score
CCCGCGCA | -0.193
CCACCGCA | -0.0349
TACATTCA | 0.255
AGGACCGA | -0.168
CAGCGTGA | -0.0983
AGGATTTA | 0.211
ATGTTTAG | 0.212
TCTCCCAA | -0.183
GCTTCACC | -0.192
CTCATCAG | -0.131
AAGATAAA | 0.313
AGTGTCAT | -0.0474
CCTCTATC | -0.175
AAGCGGTA | -0.0336
ACGCGAGG | -0.266
ACTTGGAG | -0.00834
AGTCGACT | -0.0437
ACAGATGT | -0.13
GCGCGCGA | -0.134
GGTGCGCA | -0.0657
ACTATGGC | -0.0671
AGGTTTGC | -0.0448
TATTCAAA | 0.206
AGTGTGGA | 0.183
ATTCGACG | -0.00124

Sequence | PBM 8-mer E-score
ATACCCAC | 0.192
ACATTCCC | 0.0292
GACGAAAC | 0.0345
GTCATCTA | -0.0584
GACATGCC | -0.00308
AGAAATCT | -0.0234
GGGATTAA | 0.144
ATAAGGAA | 0.191
CAATAGCG | 0.0716
CTATTAAC | 0.315
AGCCCTAC | -0.176
GTGTTGCA | -0.0604
ATCAGCCG | -0.246
ACATCCGC | -0.0692
TGGGAGAA | -0.187
CATCCGAC | -0.207
ACAGGATG | -0.111
ACAGGAGA | -0.164
ACTCCCAG | -0.168
GGCCTCCC | -0.27
ACTCCCAT | -0.0992
AGGGCCAG | -0.221
TGCTTCCA | -0.296
ACTGCAGT | 0.0352
AGAATTCA | 0.0754

Sequence | PBM 8-mer E-score
CTTCTGGA | -0.0935
ACGAACAT | 0.0702
CGCTGTAA | -0.0808
ACACATTG | 0.113
CCGGGACG | -0.26
CATCTCCA | -0.0657
ATTGACTG | -0.0518
TTATACAA | 0.359
ATTTTCGG | 0.0781
AGCATATG | 0.167
ATTGGGGC | -0.0672
AAGGCCCG | -0.242
AAGATAGG | 0.0118
ACAAATCG | 0.124
CCTAGGAC | -0.213
GAGTCAGC | -0.194
CCCCTCAC | -0.266
GCGATGCC | -0.208
GTGAGCAA | -0.0104
AAGAGCGT | -0.0294
ATTCACAC | 0.149
GCTACGCA | -0.248
GCTTCTGA | -0.0315
AGACATGA | 0.0486
GGAACTTA | 0.273

Sequence | PBM 8-mer E-score
CTCCGTGC | -0.228
ACAGGGAC | -0.154
ATCAACAG | 0.0164
AGATAGAA | 0.0575
AGCTCCAT | -0.11
GGTATATA | 0.355
ACACTATA | 0.315
CATGAGGC | -0.18
GTCTATAA | 0.172
TAAACCCA | 0.186
CTTATCGA | 0.108
CACAGAGC | -0.243
AGATTTTG | 0.165
GACATAAC | 0.125
ACTCAAGT | -0.00365
GGGCTACA | -0.0513
TGCGGACA | -0.146
AGTGTAGG | -0.009
AACAACAT | 0.246
GCGCTTAC | -0.0786
CACCCGCA | -0.239
AACGTGCC | -0.147
AGCTTCTG | -0.185
GGCACTGA | -0.126
CTAACTTC | 0.168

Sequence | PBM 8-mer E-score
AGAACATC | -0.00585
AATGTGCG | 0.0505
ACAAAGGC | -0.122
ATGAGGGC | -0.239
GGACCTCA | -0.283
GCTTCAAA | 0.195
CCGCAAGC | -0.228
GTCGCGAC | -0.226
AACCTATG | -0.0808
CGGTAAGC | -0.0976
AGCTTAAA | 0.0748
ACTGATTC | -0.0368
GAAATTCA | 0.133
CACGTGCA | -0.0519
CTTAGCAA | -0.011
ACTTAAAG | 0.159
AATGTTAT | 0.372
ACCACCCC | -0.252
CCTTACCA | -0.195
CCAGCACC | -0.386
CACCTCTA | -0.0961
CTGTTAAC | 0.141
GGCCAGTA | -0.192
AGATCCCG | -0.12
AAGGTTAG | -0.109

Sequence | PBM 8-mer E-score
CGATCAGC | -0.295
AGGCTACA | -0.0897
ACTCTCAA | -0.114
CAGGGCCC | -0.248
CGTATTTA | 0.267
AAATTCGC | 0.16
CGCTGCTC | -0.214
CCTTAATC | 0.00762
CTTTGGAA | 0.117
CGGATATA | 0.3
CTACAATC | 0.136
CCGACAGG | -0.356
CAATACAG | 0.0924
ATCGCGTG | -0.0831
CAACGCCC | -0.0923
TAAACAAA | 0.329
CGGCTTGA | -0.132
TGACCAAA | 0.0537
ATTAGGCG | 0.0152
AATAATCT | 0.314
ATGAACGA | -0.0238
GGAACCTA | -0.093
ACTGAATG | 0.0195
CGCCTACG | -0.307
TTCAGGAA | 0.177

Sequence | PBM 8-mer E-score
CTTGCCAA | -0.0787
AAAGACCA | 0.0345
CACCTCAA | -0.124
ATGACATC | -0.0678
CCCTAGGG | -0.239
GAACCTCC | -0.301
GGTGACGA | -0.163
CAGCTCCC | -0.316
AATATCTA | 0.323
ATTAAACA | 0.391
ACTAGGCC | -0.14
TGACAACA | 0.0143
CACGCGAG | -0.192
GAGCAGAC | -0.0893
AGTAAAGG | 0.00928
AGAGGTGG | -0.123
ACTCGCAT | -0.132
CTTGGGGA | -0.0808
CACATGCC | -0.119
CCGTAAGG | -0.177
GTTAGATA | 0.226
ATTTAGTC | 0.188
GCCAACTA | -0.0948
CCATTCGC | -0.129
TGTCGTAA | 0.174

Sequence | PBM 8-mer E-score
CCCGTGTC | -0.192
CAGAGGAA | -0.272
CGAAAAGC | 0.0356
GATTCCGC | -0.208
CACGGTCG | -0.0582
TCTAGGCA | -0.16
CTGTCTAA | 0.0235
TCCAAGCA | -0.0218
GCTGGTCC | -0.186
AATATGTC | 0.233
CGCGAGGA | -0.323
ACTTGTAA | 0.26
AAATAAGC | 0.275
ACGGTGGG | -0.246
ATCGTAAC | 0.139
CGGTACCG | -0.0831
GGCTTTTA | -0.0806
CATCGATA | 0.107
GTGGGAAC | -0.114
GGCGCCAC | -0.241
CAGCTTCC | -0.23
CGCCGACG | -0.164
ACACCCCC | -0.251
ACGACTAA | 0.0173
GCCAGCAA | -0.11

Sequence | PBM 8-mer E-score
GGCGGACC | -0.286
CCCGTTGA | 0.0693
CTAAACAC | 0.0995
TGGATACA | -0.00533
AAAGTAAG | 0.303
CATCGGGC | -0.221
GGCGGGAA | -0.235
ACGACTAT | 0.045
CTCATCCC | -0.214
ACCGCCCT | -0.0995
CAGATTGC | -0.199
AGGGATCG | -0.188
CACCTCAG | -0.2
CAAGGCCA | -0.192
CGTGAGGC | -0.326
CCGGTAAA | 0.0751
AAGAGAGC | -0.143
CAGCACTG | -0.0168
GGCAAGGA | -0.147
CACTGTAG | -0.0486
ACTCGACC | -0.0835
ATAGATAA | 0.186
AGCCATCG | -0.274
GACTGATC | -0.296
AAGCCCGC | -0.257

Sequence | PBM 8-mer E-score
ACGAGCCA | -0.164
GATTGACC | -0.106
AGAGCGCC | -0.212
AGTACCGA | 0.0995
GCCACAAC | -0.0932
CCACAGGC | -0.289
CAGACCAG | -0.194
CCTGTGCA | -0.0129
AGACATTC | -0.0818
CCAAAGAA | 0.0276
GATTGACA | -0.0924
AGGGTCTG | -0.21
AGTCTAAT | 0.157
ATACCTCG | 0.0641
CCTATCGC | -0.133
AAGCGGGC | -0.181
AATCGCGA | 0.0997
TATGTCAA | 0.141
CCGATCCG | -0.161
